We go through 28 compounds from the antibiotic and cytotoxicity screens of Wong et al. (2023).

In one experiment the test system is HSkMC. The experiment can be described thus: cytotoxicity call (relative viability < 0.9). Conditions: 10 µM.
Another experiment deals with HepG2. The experiment can be described thus: cytotoxicity call (relative viability < 0.9). The following applies: 10 µM.
The test system of another experiment is S. aureus RN4220. In words: growth inhibition call (relative growth <= 0.2). Conditions: 50 µM.

The other results are listed elsewhere or left out.

For `CCOC(=O)N[C@@H]1CC(=O)N(C2CC2)C1`, the cytotoxicity call in the experiment with HSkMC and with HepG2 was “inactive” throughout. In addition, in the experiment on S. aureus RN4220, the growth inhibition call was “inactive”.
For `C[C@H](CO)N1C[C@H](C)[C@H](CN(C)CC2CCOCC2)Oc2cc(Br)ccc2S1(=O)=O`, the cytotoxicity call with HSkMC and with HepG2 was “inactive” throughout. In the experiment with S. aureus RN4220, the growth inhibition call was “inactive”.
In the case of `COc1ccc(S(=O)(=O)Nc2cccc3c2O[C@@H](CN(C)Cc2ccc(-c4ccccc4)cc2)[C@H](C)CN([C@H](C)CO)C3=O)cc1`, the cytotoxicity call in the experiment with HSkMC and in the experiment on HepG2 was “inactive” each time. The growth inhibition call with S. aureus RN4220 was “inactive”.
Turning to `O=C1COC2(CCN(C(=O)C3CCOCC3)CC2)CN1`, the cytotoxicity call in the experiment with HSkMC and in the experiment on HepG2 was “inactive” throughout. For the same compound, in the experiment with S. aureus RN4220, the growth inhibition call was “inactive”.
Regarding `Nc1cc(=O)nc2[nH][nH]c(=S)n12`, the cytotoxicity call in the experiment on HSkMC and with HepG2 was “inactive” each time. Also, the growth inhibition call in the experiment on S. aureus RN4220 was “inactive”.
On to `C[C@@H]1CCCCO[C@H](CN(C)C(=O)NC2CCCCC2)[C@@H](C)CN([C@H](C)CO)C(=O)c2cc(NS(=O)(=O)c3ccc(F)cc3)ccc2O1`, for which the cytotoxicity call with HSkMC and in the experiment with HepG2 was “inactive” each time. Besides, the growth inhibition call in the experiment on S. aureus RN4220 is “inactive”.
On to `COc1ccc(S(=O)(=O)N(C)C[C@@H]2Oc3ccc(NC(=O)C4CC4)cc3C(=O)N([C@H](C)CO)C[C@@H]2C)cc1`, for which the cytotoxicity call with HSkMC and with HepG2 was “inactive” throughout. Also, the growth inhibition call in the experiment on S. aureus RN4220 was “inactive”.
Take `C[C@H]1CN([C@@H](C)CO)C(=O)c2cc(NS(C)(=O)=O)ccc2O[C@@H]1CN(C)Cc1ccc(C(F)(F)F)cc1`: the cytotoxicity call in the experiment with HSkMC and in the experiment on HepG2 was “inactive” throughout. The growth inhibition call in the experiment with S. aureus RN4220 was “inactive”.
In the case of `O=C1CC[C@H](C(=O)O)N1`, the cytotoxicity call in the experiment on HSkMC and in the experiment with HepG2 was “inactive” in each case. Moreover, in the experiment with S. aureus RN4220, the growth inhibition call is “inactive”.
With `COc1ccc(S(=O)(=O)N(C)C[C@@H]2OCCCC[C@@H](C)Oc3ccc(NS(=O)(=O)c4cn(C)cn4)cc3C(=O)N([C@H](C)CO)C[C@H]2C)cc1`, the cytotoxicity call in the experiment on HSkMC and with HepG2 was “inactive” in each case. The growth inhibition call in the experiment on S. aureus RN4220 was “inactive”.
Turning to `OC[C@H]1O[C@@H](O[C@H]2[C@H](O)[C@@H](O)[C@@H](O)O[C@@H]2CO)[C@H](O)[C@@H](O)[C@@H]1O`, the cytotoxicity call in the experiment on HSkMC and in the experiment on HepG2 was “inactive” each time. The growth inhibition call in the experiment with S. aureus RN4220 is “inactive”.
On to `COc1ccc(S(=O)(=O)Nc2ccc3c(c2)C(=O)N([C@@H](C)CO)C[C@@H](C)[C@H](CN(C)C(=O)Nc2cccc4ccccc24)OCCCC[C@@H](C)O3)cc1`, for which the cytotoxicity call with HSkMC and in the experiment on HepG2 was “inactive” in each case. For the same compound, the growth inhibition call with S. aureus RN4220 is “inactive”.
Regarding `CN(C)CC(=O)N1[C@@H](CO)[C@H](c2ccc(C3=CCCC3)cc2)C12CN(S(=O)(=O)Cc1ccccc1)C2`, the cytotoxicity call in the experiment on HSkMC and in the experiment on HepG2 was “inactive” in each case. Further, the growth inhibition call in the experiment on S. aureus RN4220 is “inactive”.
For the compound `C[C@@H]1CN([C@@H](C)CO)C(=O)c2cc(C#CC3CCCCC3)cnc2O[C@H]1CN(C)C(=O)Cc1ccccn1`, the cytotoxicity call in the experiment on HSkMC and with HepG2 was “inactive” throughout. Further, the growth inhibition call in the experiment on S. aureus RN4220 was “inactive”.
Turning to `COCCNC(=O)C[C@H]1C[C@H]2c3cc(NC(=O)Nc4ccc(C(F)(F)F)cc4)ccc3O[C@H]2[C@H](CO)O1`, the cytotoxicity call in the experiment on HSkMC and with HepG2 was “inactive” each time. Further, in the experiment with S. aureus RN4220, the growth inhibition call was “inactive”.
For the compound `C[C@@H]1CCCCO[C@@H](CN(C)Cc2ccccc2)[C@@H](C)CN([C@H](C)CO)C(=O)c2cc(NS(=O)(=O)c3cccs3)ccc2O1`, the cytotoxicity call in the experiment on HSkMC and with HepG2 was “inactive” each time. In the experiment with S. aureus RN4220, the growth inhibition call is “inactive”.
For the compound `C#CC1(O)CCC2C3CCc4cc(O)ccc4C3CCC21C` (centres undefined), the cytotoxicity call in the experiment on HSkMC is “inactive”. Moreover, the cytotoxicity call with HepG2 is “active”. For the same compound, in the experiment with S. aureus RN4220, the growth inhibition call was “inactive”.
As to `O=C(C[C@H]1CC[C@H]2[C@@H](COC[C@H](O)CN2C(=O)c2ccccc2)O1)NCCCN1CCOCC1`, the cytotoxicity call in the experiment with HSkMC and in the experiment on HepG2 was “inactive” in each case. Moreover, the growth inhibition call with S. aureus RN4220 was “inactive”.
Take `COc1ccc([Si](C)(C)[C@H]2[C@H](CCOC(=O)NCCCCCC(=O)NO)O[C@]3(C(=O)N(Cc4cccc(I)c4)c4ccccc43)[C@@H]2C)cc1`: the cytotoxicity call in the experiment on HSkMC and in the experiment on HepG2 was “inactive” in each case. In addition, the growth inhibition call with S. aureus RN4220 was “inactive”.
As to `Cc1noc(C)c1NC(=O)N(C)C[C@H]1Oc2c(NC(=O)C3CC3)cccc2C(=O)N([C@H](C)CO)C[C@H]1C`, the cytotoxicity call in the experiment with HSkMC and with HepG2 was “inactive” throughout. For the same compound, the growth inhibition call with S. aureus RN4220 is “inactive”.
Turning to `C[C@H](CO)N1C[C@H](C)[C@H](CN(C)C(=O)C2CC2)Oc2ncc(-c3ccc(C(=O)N(C)C)cc3)cc2C1=O`, the cytotoxicity call in the experiment on HSkMC and in the experiment with HepG2 was “inactive” each time. Moreover, in the experiment on S. aureus RN4220, the growth inhibition call was “inactive”.
On to `C[C@H]1CN([C@@H](C)CO)C(=O)c2cccc(NC(=O)Nc3ccccc3)c2O[C@H]1CN(C)C(=O)Nc1ccc(C(F)(F)F)cc1`, for which the cytotoxicity call with HSkMC and in the experiment on HepG2 was “inactive” each time. Also, the growth inhibition call in the experiment with S. aureus RN4220 was “inactive”.
In the case of `C[C@H]1CN([C@@H](C)CO)C(=O)c2cc(C#Cc3ccccn3)cnc2O[C@H]1CN(C)C(=O)CCN1CCCCC1`, the cytotoxicity call with HSkMC and in the experiment on HepG2 was “inactive” in each case. In addition, in the experiment with S. aureus RN4220, the growth inhibition call was “inactive”.
As for `Cc1noc(C)c1S(=O)(=O)Nc1ccc2c(c1)CC(=O)N([C@@H](C)CO)C[C@@H](C)[C@H](CN(C)C(=O)NC(C)C)O2`, the cytotoxicity call in the experiment with HSkMC and in the experiment on HepG2 was “inactive” in each case. Also, the growth inhibition call with S. aureus RN4220 is “inactive”.
Consider `CCCC#Cc1cnc2c(c1)C(=O)N([C@@H](C)CO)C[C@@H](C)[C@H](CN(C)S(=O)(=O)c1cccc(OC)c1)O2`, for which the cytotoxicity call in the experiment on HSkMC (human skeletal muscle cells) and in the experiment on HepG2 was “inactive” each time. Moreover, the growth inhibition call with S. aureus RN4220 was “inactive”.
Consider `CO[C@H]1CN(C)C(=O)c2ccc(NC(=O)C3CCOCC3)cc2OC[C@@H](C)N(Cc2cccnc2)C[C@@H]1C`, for which the cytotoxicity call in the experiment with HSkMC and with HepG2 was “inactive” in each case. In addition, in the experiment on S. aureus RN4220, the growth inhibition call was “inactive”.
As for `Cc1ccc(S[C@]2(C(=O)O)CC(=O)N(Cc3cc(C(F)(F)F)cc(C(F)(F)F)c3)[C@@H]2c2ccc(CO)cc2I)cc1`, the cytotoxicity call in the experiment with HSkMC and in the experiment on HepG2 was “inactive” throughout. Further, the growth inhibition call in the experiment on S. aureus RN4220 was “inactive”.
For `O=C(C[C@H]1C=C[C@H](NC(=O)Cc2ccccn2)[C@H](CO)O1)NCCc1ccncc1`, the cytotoxicity call in the experiment with HSkMC and with HepG2 was “inactive” throughout. In addition, in the experiment with S. aureus RN4220, the growth inhibition call was “inactive”.
